Results reported in patent US20210221864A1 (published 2021).

Molecular target: T1, rhFc-CD122 (human, UniProt P14784 27-240)
T1 chain: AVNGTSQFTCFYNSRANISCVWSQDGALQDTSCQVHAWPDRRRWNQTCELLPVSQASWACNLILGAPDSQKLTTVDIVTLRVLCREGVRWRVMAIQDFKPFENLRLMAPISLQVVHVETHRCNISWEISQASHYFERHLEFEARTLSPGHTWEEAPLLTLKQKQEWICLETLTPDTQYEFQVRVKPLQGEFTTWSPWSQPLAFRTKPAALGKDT
Assay: SPR

B1: 329141 construct (IL2-L1-CH2-L2-IL-2Rα-LH masked cytokine receptor binding protein) (other)
chain: [about 150 residues cut from this listing]GGVPLSLYSGNGGPSVFLFPPKPKDTLMISRTPEVTCVVVDVSHEDPEVKFNWYVDGVEVHNAKTKPREEQYNSTYRVVSVLTVLHQDWLNGKEYKCKVSNKALPAPIEKTISKAKGQPGASASGGGMLSLELCDDDPPEIPHATFKAMAYKEGTMLNCECKRGFRRIKSGSLYMLCTGSSSHSSWDNQCQCTSSATRSTTKQVTPQPEEQKERKTTEMQSPMQPVDQASLPGHCREPPPWENEATERIYHFVVGQMVYYQCVQGYRALHRGPAESVCKMTHGKTRWTQPQLICTGEASGGGGHHHHHH
- Kd: 342 nM
